Results taken from paper PMC3279423.
These are yes or no findings as the source states them, for the method shown. Some results given as binding are weak or reduced against the parent protein; the word gives no strength.

Chains of the proteins cited; added tags and fusions are not shown.
UniProt Q99816: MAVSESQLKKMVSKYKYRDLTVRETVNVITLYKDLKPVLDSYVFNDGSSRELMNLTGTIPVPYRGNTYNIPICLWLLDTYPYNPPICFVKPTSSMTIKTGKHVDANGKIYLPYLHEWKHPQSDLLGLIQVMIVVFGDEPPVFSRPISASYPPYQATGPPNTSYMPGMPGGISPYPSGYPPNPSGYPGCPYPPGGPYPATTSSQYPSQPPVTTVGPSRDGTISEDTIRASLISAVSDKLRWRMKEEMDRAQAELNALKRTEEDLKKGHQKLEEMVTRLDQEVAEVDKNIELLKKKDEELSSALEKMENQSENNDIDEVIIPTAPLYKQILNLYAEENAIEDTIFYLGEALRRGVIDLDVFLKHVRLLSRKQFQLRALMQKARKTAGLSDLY

B1: FIP4 L375P (pGADGH/FIP4 L375P) (protein, UniProt Q86YS3 1-637)
chain: MAGGAGWSGAPAALLRSVRRLREVFEVCGRDPDGFLRVERVAALGLRFGQGEEVEKLVKYLDPNDLGRINFKDFCRGVFAMKGCEELLKDVLSVESAGTLPCAPEIPDCVEQGSEVTGPTFADGELIPREPGFFPEDEEEAMTLAPPEGPQELYTDSPMESTQSLEGSVGSPAEKDGGLGGLFLPEDKSLVHTPSMTTSDLSTHSTTSLISNEEQFEDYGEGDDVDCAPSSPCPDDETRTNVYSDLGSSVSSSAGQTPRKMRHVYNSELLDVYCSQCCKKINLLNDLEARLKNLKANSPNRKISSTAFGRQLMHSSNFSSSNGSTEDLFRDSIDSCDNDITEKVSFLEKKVTELENDSLTNGDLKSKLKQENTQPVHRVHELEEMVKDQETTAEQALEEEARRHREAYGKLEREKATEVELLNARVQQLEEENTELRTTVTRLKSQTEKLDEERQRMSDRLEDTSLRLKDEMDLYKRMMDKLRQNRLEFQKEREATQELIEDLRKELEHLQMYKLDCERPGRGRSASSGLGEFNARAREVELEHEVKRLKQENYKLRDQNDDLNGQILSLSLYEAKNLFAAQTKAQSLAAEIDTASRDELMEALKEQEEINFRLRQYMDKIILAILDHNPSILEIKH
B2: FIP3, pGADGH/FIP3 two-hybrid prey (protein, UniProt O75154 1-756)
chain: MASAPPASPPGSEPPGPDPEPGGPDGPGAAQLAPGPAELRLGAPVGGPDPQSPGLDEPAPGAAADGGARWSAGPAPGLEGGPRDPGPSAPPPRSGPRGQLASPDAPGPGPRSEAPLPELDPLFSWTEEPEECGPASCPESAPFRLQGSSSSHRARGEVDVFSPFPAPTAGELALEQGPGSPPQPSDLSQTHPLPSEPVGSQEDGPRLRAVFDALDGDGDGFVRIEDFIQFATVYGAEQVKDLTKYLDPSGLGVISFEDFYQGITAIRNGDPDGQCYGGVASAQDEEPLACPDEFDDFVTYEANEVTDSAYMGSESTYSECETFTDEDTSTLVHPELQPEGDADSAGGSAVPSECLDAMEEPDHGALLLLPGRPHPHGQSVITVIGGEEHFEDYGEGSEAELSPETLCNGQLGCSDPAFLTPSPTKRLSSKKVARYLHQSGALTMEALEDPSPELMEGPEEDIADKVVFLERRVLELEKDTAATGEQHSRLRQENLQLVHRANALEEQLKEQELRACEMVLEETRRQKELLCKMEREKSIEIENLQTRLQQLDEENSELRSCTPCLKANIERLEEEKQKLLDEIESLTLRLSEEQENKRRMGDRLSHERHQFQRDKEATQELIEDLRKQLEHLQLLKLEAEQRRGRSSSMGLQEYHSRARESELEQEVRRLKQDNRNLKEQNEELNGQIITLSIQGAKSLFSTAFSESLAAEISSVSRDELMEAIQKQEEINFRLQDYIDRIIVAIMETNPSILEVK
B3: FIP4 364-519 (pGADGH/FIP4 364-519) (domain or fragment, UniProt Q86YS3 364-519)
chain: LKSKLKQENTQLVHRVHELEEMVKDQETTAEQALEEEARRHREAYGKLEREKATEVELLNARVQQLEEENTELRTTVTRLKSQTEKLDEERQRMSDRLEDTSLRLKDEMDLYKRMMDKLRQNRLEFQKEREATQELIEDLRKELEHLQMYKLDCER
B4: FIP4 413-474 (pGADGH/FIP4 413-474) (domain or fragment, UniProt Q86YS3 413-474)
chain: REKATEVELLNARVQQLEEENTELRTTVTRLKSQTEKLDEERQRMSDRLEDTSLRLKDEMDL

Target: TSG101 (tumor susceptibility gene 101), pVJL10-TSG101 two-hybrid bait (UniProt Q99816)
Assay: two-hybrid; pVJL10 (bait) and pGADGH (prey) constructs co-transformed into S. cerevisiae L40; growth on medium lacking tryptophan, leucine and histidine with 1 mM 3-AT, 30°C

**Q.** How did the binding turn out when B1 was run?
**A.** Its binding is “binds”.

**Q.** With B2 as the binder, how does the binding read?
**A.** Its binding is “binds”.

**Q.** Which binding does the source give for B3 here?
**A.** The binding was “binds”.

**Q.** How did the binding turn out when LKSKLKQENTQLVHRVHELEEMVKDQETTAEQALEEEARRHREAYGKLE (domain or fragment, UniProt Q86YS3 364-412) [FIP4 364-412 (pGADGH/FIP4 364-412)] was run?
**A.** Its binding is “no binding”.

**Q.** Which binding does the source give for B4 here?
**A.** The binding was “no binding”.

**Q.** YKRMMDKLRQNRLEFQKEREATQELIEDLRKELEHLQMYKLDCER (domain or fragment, UniProt Q86YS3 475-519) [FIP4 475-519 (pGADGH/FIP4 475-519)] was tested. Which binding did it give?
**A.** The binding was “no binding”.
